According to the supplement of paper PMC12217912:
The list shows a part of the results. The full chains were built here from the parent and the listed change. Values near 0.05 are background.

B1: TEV protease; numbered along this chain (parent)
chain: MGESLFKGPRDYNPISSSICHLTNESDGHTTSLYGIGFGPFIITNKHLFRRNNGTLVVQSLHGVFKVKDTTTLQQHLVDGRDMIIIRMPKDFPPFPQKLKFREPQREERICLVTTNFQTKSMSSMVSDTSCTFPSGDGIFWKHWIQTKDGQCGSPLVSTRDGFIVGIHSASNFTNTNNYFTSVPKNFMELLTNQEAQQWVSGWRLNADSVLWGGHKVFMVKPEEPFQPVKEATQL

Variants of: B1
Test: raw area under fraction-flipped curve 0-4 h after induction (AUC4h, not background-subtracted), DNA-recorder readout of cleavage of the substrate (dimensionless); higher = more cleavage of the substrate by the protease variant
Details: temperature: 34 °C; time window: 0-4 h after rhamnose induction
Procedure: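 In vivo DNA recorder in E. coli TOP10(DE3) ΔrhaA at 34 °C. Each TEVp single-site mutant (parent TEVp 0) is paired with a single-site variant of the 7-mer TEVs (canonical ENLYFQ|S). The substrate sits between flexible linkers in a Bxb1-sfGFP-TEVs-SsrA fusion, so cleavage stabilises Bxb1 and speeds flipping of a recombination array, read by NGS. The value is the raw area under the fraction-flipped curve over 0-4 h after rhamnose induction (AUC4h), with ≥20 reads per time point. It is not background-subtracted; inactive controls average about 0.047.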
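Also: Bxb1 expression induced with 0.2% (w/v) L-rhamnose at OD600 near 0.5, cultures sampled hourly, flipped fraction per protease–substrate barcode pair counted by paired-end Illumina sequencing.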

Row | Variant | area with substrate ENLYFQA | area with substrate ENLYFQC | area with substrate ENLYFQD | area with substrate ENLYFQE | area with substrate ENLYFQG | area with substrate ENLYFQH | area with substrate ENLYFQI | area with substrate ENLYFQK | area with substrate ENLYFQL | area with substrate ENLYFQM | area with substrate ENLYFQN | area with substrate ENLYFQP | area with substrate ENLYFQQ | area with substrate ENLYFQR | area with substrate ENLYFQS | area with substrate ENLYFQT | area with substrate ENLYFQV | area with substrate ENLYFQW | area with substrate ENLYFQY | area with substrate ENLYFQF
1 | MGESLFKGPRDYNPISSSICHLTNESDGHTTSLYGIGFGPSIITNKHLFRRNNGTLVVQSLHGVFKVKDTTTLQQHLVDGRDMIIIRMPKDFPPFPQKLKFREPQREERICLVTTNFQTKSMSSMVSDTSCTFPSGDGIFWKHWIQTKDGQCGSPLVSTRDGFIVGIHSASNFTNTNNYFTSVPKNFMELLTNQEAQQWVSGWRLNADSVLWGGHKVFMVKPEEPFQPVKEATQL [F41S] | 0.0812 | 0.0922 | 0.0311 | 0.0767 | 0.0726 | 0.0716 | 0.0469 | 0.049 | 0.0554 | 0.0648 | 0.0618 | 0.0609 | 0.0639 | 0.0439 | 0.0829 | 0.048 | 0.0386 | 0.0798 | 0.062 | 
2 | MGESLFKGPRDYNPISSSICHLTNESDGHTTSLYGIGFGPFIITNKHLFRRNNGTLVVQSLHGVFKVKDTTTLQQHLVDGRDMIIIRMPKDFPPFPQKLKFREPQREERICLVTTNFQTKSMSSMVSDTSCTFPSGDGIFWKHWIQTKDGQCGSPLVSTRDGFIVGIHSASNFTNTNNYFTSVPKNFMELLTNQEAQQWVSGWRLNADSVLWGGMKVFMVKPEEPFQPVKEATQL [H215M] | 0.0767 |  | 0.0762 |  | 0.0855 | 0.0653 | 0.0657 |  | 0.0434 | 0.062 |  |  |  | 0.0559 | 0.0839 | 0.0719 | 0.0571 | 0.0571 | 0.0555 | 
3 | MGESLFKGPRDYNPISSSICHLTNESDGHTTSLYGIGFGPFIITNKHLFRRNNGTLVVQSLHGVFKVKDTTTLQQHLVDGRDMIIIRMPKDFPPFPQKLKFREPQREERICLVTTNFQTKSMSSMVSDTSCTFPSGDGIFWKHWIQTKDGQCGSPLVSTRDGFIVGIHSASNFTNTNNYFTSVPKNFMELLTNQEAQQWVSGWRLNADSVLWGGHKVKMVKPEEPFQPVKEATQL [F218K] | 0.0733 | 0.0556 |  |  | 0.0979 |  |  | 0.0605 |  | 0.0771 | 0.0668 |  |  |  | 0.0704 | 0.0646 |  | 0.0702 |  | 
4 | MGESLFKGPRDYNPISSSICHLTNESDGHTTSLYGIGFGPFIITNKHLFRRNNGTLVVQSLHGVFKVKDTTTLQQHLVDGRDMIIIRMPKDFPPFPQKLMFREPQREERICLVTTNFQTKSMSSMVSDTSCTFPSGDGIFWKHWIQTKDGQCGSPLVSTRDGFIVGIHSASNFTNTNNYFTSVPKNFMELLTNQEAQQWVSGWRLNADSVLWGGHKVFMVKPEEPFQPVKEATQL [K100M] | 0.151 | 0.127 |  |  | 0.0899 |  |  | 0.0526 |  |  |  | 0.0428 |  |  | 0.111 |  |  |  |  | 
5 | MGESLFKGPRDYNPISSSICHLTNESDGHTTSLYGIGFGPFIITNKHLFRRNNGTLVVQSLHGVFKVKDTTTLQQHLVDGRDAIIIRMPKDFPPFPQKLKFREPQREERICLVTTNFQTKSMSSMVSDTSCTFPSGDGIFWKHWIQTKDGQCGSPLVSTRDGFIVGIHSASNFTNTNNYFTSVPKNFMELLTNQEAQQWVSGWRLNADSVLWGGHKVFMVKPEEPFQPVKEATQL [M83A] | 0.0875 | 0.0935 | 0.0556 |  | 0.0808 | 0.0564 | 0.0511 | 0.0595 | 0.0614 | 0.092 |  | 0.0523 | 0.0631 | 0.0555 | 0.0799 | 0.0711 | 0.0438 |  | 0.0663 | 0.0716
6 | MGESLFKGPRDYNPISSSICHLTNESDGHTTSLYGIGFGPFIITNKHLFRRNNGTLVVQSLHGVFKVKDTTTLQQHLVDGRDMIIIRSPKDFPPFPQKLKFREPQREERICLVTTNFQTKSMSSMVSDTSCTFPSGDGIFWKHWIQTKDGQCGSPLVSTRDGFIVGIHSASNFTNTNNYFTSVPKNFMELLTNQEAQQWVSGWRLNADSVLWGGHKVFMVKPEEPFQPVKEATQL [M88S] | 0.08 |  |  |  | 0.0868 |  | 0.0553 | 0.0699 | 0.0565 | 0.0752 | 0.0641 | 0.0531 |  | 0.0499 | 0.0834 |  | 0.0557 | 0.0346 |  | 
7 | MGESLFKGPRDYNPISSSICHLTNESDGHTTSLYGIGFGPFIITNKHLFRRNNGTLVVQSLHGVFKVKDTTTLQQHLVDGRDMIIIRMPKDFPPFPQKLKFREPQREERICLVTTNFQTKSMSSMVSDTSCTFPSGDGIFWKHWIQTYDGQCGSPLVSTRDGFIVGIHSASNFTNTNNYFTSVPKNFMELLTNQEAQQWVSGWRLNADSVLWGGHKVFMVKPEEPFQPVKEATQL [K148Y] | 0.113 | 0.167 | 0.0714 | 0.0705 |  | 0.0861 | 0.0663 | 0.0496 | 0.0694 | 0.0965 | 0.0752 | 0.0659 |  |  | 0.107 |  | 0.042 |  | 0.0817 | 
8 | MGESLFKGPRDYNPISSSICHLTNESDGHTTSLYGIGFGPFIITNKHLFRRNEGTLVVQSLHGVFKVKDTTTLQQHLVDGRDMIIIRMPKDFPPFPQKLKFREPQREERICLVTTNFQTKSMSSMVSDTSCTFPSGDGIFWKHWIQTKDGQCGSPLVSTRDGFIVGIHSASNFTNTNNYFTSVPKNFMELLTNQEAQQWVSGWRLNADSVLWGGHKVFMVKPEEPFQPVKEATQL [N53E] | 0.141 | 0.109 |  |  |  |  | 0.0684 |  | 0.0601 |  | 0.0883 | 0.0484 |  | 0.0657 | 0.106 | 0.0621 | 0.0405 |  |  | 
9 | MGESLFKGPRDYNPISSSICHLTNESDGHTTSLYGIGFGPFIITNKHLFRRNNGTLVVQSLHGVFKVKDTTTLQQHLVDGRDMIIIRMPKDFPPFPQKLKFREPQREERICLVTTNFQTKCMSSMVSDTSCTFPSGDGIFWKHWIQTKDGQCGSPLVSTRDGFIVGIHSASNFTNTNNYFTSVPKNFMELLTNQEAQQWVSGWRLNADSVLWGGHKVFMVKPEEPFQPVKEATQL [S121C] | 0.104 | 0.132 | 0.0603 |  | 0.105 |  |  | 0.0536 | 0.062 | 0.0704 |  | 0.0759 | 0.0663 |  | 0.106 |  |  |  |  | 
10 | MGESLFKGPRDYNPISSSICHLTNESDGHTTSLYGIGFGPFIITNKHLFRRNNGTLVVQSLHGVFKVKDTTTLQQHLVDGRDMIIIRMPKDFPPFPQKLKFREPQREERICLVTTNFQTKSMSSMVSDTSCTFPSGDGHFWKHWIQTKDGQCGSPLVSTRDGFIVGIHSASNFTNTNNYFTSVPKNFMELLTNQEAQQWVSGWRLNADSVLWGGHKVFMVKPEEPFQPVKEATQL [I139H] | 0.0836 | 0.133 |  |  |  | 0.0721 | 0.0497 |  |  |  | 0.0663 |  | 0.0796 | 0.0703 | 0.0941 |  | 0.0561 |  |  | 
